Data from PubChem BioAssay AID686978 (National Center for Advancing Translational Sciences (NCATS), 2013).
In all, about 420,000 compounds went through this assay and about 64,000 (15%) were called active. This list was built around the results that the source calls inconclusive (neither active nor inactive); the mix of calls is not that of the screen. Calls follow the shape of the dose curve; as a rule, active = well fitted inhibition curve with a large enough effect; inconclusive = small, poorly fitted or top-dose-only effect; inactive = flat fitted curve, though single readings scatter. Potencies of inconclusive entries are left out as doubtful fits.

experiment: qHTS for Inhibitors of human tyrosyl-DNA phosphodiesterase 1 (TDP1): qHTS in cells in absence of CPT; settings: DT40 Tdp1-/- hTDP1 cells, no CPT, ATP luminescence, 48 h; activity change, negative = growth inhibition: at 46.2 µM (top of the series) unless noted; also: nearly all actives have a fitted effect of over 55% in size
Summary of the method: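 Camptothecin absent (DMSO only). Human TDP1-complemented DT40 knockout cells, 400 cells/well, 37 °C for minimum 48 hr; ATP measured via CellTiter-Glo, 30 min dark incubation, luminescence.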
% is scaled to controls: 0 for no effect and ±100 for the full control effect; potency is read from the fitted curve at half-maximal effect; tags tell the direction and shape of the fitted curve.

Compound	activity change, negative = growth inhibition	Potency
CC(C)CCN1C(=O)c2ccc(C(=O)Nc3ccccc3C(=O)O)cc2C1=O	inactive: 2.94%	–
Cc1cccc(NC(=O)Cn2cnc3c(oc4ccccc43)c2=O)c1C	–	inconclusive [inhibitor, single point]
COC(=O)/C=c1/s/c(=C(/C#N)C(=O)N2CCOCC2)n(-c2ccccc2)c1=O	–	inconclusive [inhibitor, single point]
Cn1c(=O)cc(SCC(=O)Nc2cccc(C#N)c2)c2ccc(Cl)cc21	inactive: -22.4%	–
O=C(c1ccccc1)N1CCN(Cc2cccc(Oc3ccccc3)c2)CC1	–	inconclusive [inhibitor, single point]
Cc1ccc(C)c(NC(=O)C(=O)NCCc2csc(-c3cccc(F)c3)n2)c1	inactive: -12.8%	–
O=[N+]([O-])c1cccc2c(Cl)ccnc12	–	inconclusive [inhibitor, single point]
O=C(N/N=C/c1ccccn1)C1CC1	inactive: -13%	–
COc1ccc(C(C#N)=C2C=CC(=NO)C=C2)cc1	–	active: 10.3 µM
COc1ccc(N2CCN(C(=O)Cc3noc4ccc(C)cc34)CC2)cc1	–	inconclusive [inhibitor, single point]
c1ccc2sc(-c3cc4c(c(OC5CCOC5)c3)OCCN(Cc3cccn3-c3nccs3)C4)nc2c1 (configuration not stated)	–	inconclusive [inhibitor, partial curve, poor fit]
COC(=O)N/N=C/c1ccccc1OCCOc1ccc(OC)cc1	–	active: 16.4 µM
COc1cccc(CNc2ncnc3sc(C(=O)N4CCOCC4)c(C)c23)c1OC	inactive: 0.97%	–
COC(=O)C1=C(C)NC(C)=C(C(=O)O[C@@H]2CCCN(Cc3ccccc3)C2)[C@@H]1c1cccc([N+](=O)[O-])c1	–	active: 10.3 µM
O=C(Oc1ccccc1N1C(=O)C2CCCCC2C1=O)c1ccc(Cl)cc1 (configuration not stated)	–	inconclusive [inhibitor, single point]
C=CCn1cc(C(=O)NCc2ccc(Cl)cc2)c(=O)c2cc(S(=O)(=O)N(CC)CC)ccc21	–	inconclusive [inhibitor, single point]
Cn1c2ccccc2c2cc(C(=O)OCC(=O)N3CC(=O)Nc4ccccc43)sc21	–	inconclusive [inhibitor, single point]
O=C(NNC(=O)c1ccccc1F)c1cccs1	inactive: -13.4%	–
Cc1cc(C)cc(NC(=O)CCC(=O)Nc2nnc(C(C)C)s2)c1	inactive: 5.65%	–
COc1ccccc1C(=O)NC(=S)Nc1ccc(NC(=O)c2cccs2)cc1	inactive: -5.25%	–
O=[N+]([O-])c1ccc(N2CCCC2)nc1N1CCCC1	–	inconclusive [inhibitor, single point]
Cc1ccc(CN2CCc3nc(N4CCN(C)CC4)ncc3C2)cc1	–	inconclusive [inhibitor, single point]
S=c1[nH]nc(C2CCCCC2)n1/N=C/c1ccc(Br)s1	–	inconclusive [inhibitor, single point]
COc1ccc(/C=N\NC(=O)COc2ccccc2)c(C(=O)O)c1OC	inactive: -1.01%	–

Compound	activity change, negative = growth inhibition	Potency
CCc1ccccc1NC(=O)Nc1cc(F)ccc1F	inactive: -2.82%	–
COc1ccc(S(=O)(=O)N2CCC(C(=O)N3CCc4ccccc4C3)CC2)cc1OC	–	active: 29.1 µM
O=C(/C=C/c1cccc(F)c1)Nc1cc(S(=O)(=O)N2CCOCC2)ccc1N1CCCC1	–	inconclusive [inhibitor, single point]
O=C(CN1C2=NCCCN2c2ccccc21)c1cccs1	inactive: -22.1%	–
COc1ccc(N2CCN(C(=O)c3ccc(F)cc3)CC2)c([N+](=O)[O-])c1	–	active: 20.6 µM
Cc1c(C(=O)N2CCCC(C)C2)sc2ncnc(N3CCCCC3C)c12 (configuration not stated)	–	inconclusive [inhibitor, single point]
CCc1ccc(NC(=O)Cn2ccn(-c3cccc(Cl)c3)c(=O)c2=O)cc1	–	inconclusive [inhibitor, single point]
Cc1c(C)n2c(SCC(=O)Nc3ccc4c(c3)OCCO4)nnc2[nH]c1=O	–	inconclusive [inhibitor, partial curve, poor fit]
COCCn1c(SCC(=O)Nc2sccc2C(N)=O)nc2cc(Cl)ccc2c1=O	–	inconclusive [inhibitor, single point]
O=C(CCN1CCCCO1)NC1CCCc2c1cnn2-c1ccc(F)cc1F (configuration not stated)	–	inconclusive [inhibitor, partial curve]
c1ccc(-c2nccnc2-c2ccccc2)cc1	–	inconclusive [inhibitor, partial curve, poor fit]
O=C(Cn1nnc(-c2ccccc2)n1)NCc1ccccc1	inactive: 2.1%	–
O=C(CCc1ccccc1)NNC(=O)c1ccncc1	inactive: -4.69%	–
COc1ccc2sc(NC(=O)c3ccco3)nc2c1	inactive: -23.9%	–
Cc1ccc(C2CC(=O)Nc3c2ccc2ccccc32)cc1[N+](=O)[O-] (configuration not stated)	–	inconclusive [inhibitor, single point]
O=C(c1ccncc1)N1CCC2(CC1)CN(c1ncccn1)C2	inactive: -8.68%	–
CCOc1ccccc1C1CC(=O)NC(C)=C1C(=O)OCc1ccc(C)cc1 (configuration not stated)	–	active: 16.4 µM
CCCCCC(=O)NC(=S)Nc1ccc(N2CCCCC2)c(Cl)c1	–	inconclusive [inhibitor, partial curve]
CCCCCCn1nc(C(=O)OCC(=O)NC2CCS(=O)(=O)C2)c2ccccc2c1=O (configuration not stated)	inconclusive: -30.5% [inhibitor]	–
CC1(C)OCC(N)(CO)CO1	inactive: -17.8%	–
CC1CN(c2ccc(C(F)(F)F)cc2[N+](=O)[O-])CCN1S(C)(=O)=O (configuration not stated)	–	inconclusive [inhibitor, single point]
CCC(=NCCN1CCNCC1)C1=C(O)CC(C)(C)CC1=O	inactive: -19.6%	–
CC(C)c1ccc(C2(C)NC(=O)N(CC(=O)NCC3COc4ccccc4O3)C2=O)cc1 (configuration not stated)	–	inconclusive [inhibitor, single point]
COc1ccc(Nc2nnc(-c3ccc(C)c(S(=O)(=O)N4CCN(C)CC4)c3)c3ccccc23)cc1	–	inconclusive [inhibitor, single point]

Compound	activity change, negative = growth inhibition	Potency
CCN(c1ccccc1)S(=O)(=O)c1ccc(Cl)nc1	–	inconclusive [inhibitor, single point]
Cc1ccccc1NC(=S)NCCC(c1ccccc1)c1ccccc1	–	inconclusive [inhibitor, single point]
C=C(C)COc1ccc(-c2nc(N)ncc2Oc2ccccc2OCC)c(O)c1	–	inconclusive [inhibitor, single point]
CCOC(=O)c1oc2ccccc2c1NC(=O)CN1CCN(C)CC1	inactive: -3.7%	–
S=C(Nc1ccc(Cl)cc1)c1nc2ccccc2[nH]1	–	inconclusive [inhibitor, single point]
COc1cc2c(cc1OC)C(COc1ccc3c(C)cc(=O)oc3c1)N(C(=O)c1ccc(C)c(C)c1)CC2 (configuration not stated)	–	active: 16.4 µM
Cc1nc(C)c(C(=O)N(c2ccccc2F)C(C(=O)NCC2CCCO2)c2ccccc2)s1 (configuration not stated)	–	inconclusive [inhibitor, single point]
Cc1ccc(C(=O)Nc2cccc(NC(=O)CN3CCCCC3)c2)cc1	–	inconclusive [inhibitor, single point]
C[C@@H]1CN([C@@H](C)CO)C(=O)c2cc(NS(C)(=O)=O)ccc2O[C@@H](C)CCCCO[C@H]1CN(C)Cc1ccc2c(c1)OCO2	–	inconclusive [inhibitor, single point]
Cc1ccc(NS(=O)(=O)c2cc(C(=O)N(C)C3CCN(C)CC3)ccc2Cl)cc1Cl	–	inconclusive [inhibitor, single point]
COc1ccc(Cl)cc1C(=O)NCC(c1ccc(N(C)C)cc1)N1CCOCC1 (configuration not stated)	–	active: 16.4 µM
COCCn1c(SCC(=O)N2CCc3ccccc32)nc2c(c1=O)SC(C)C2 (configuration not stated)	–	inconclusive [inhibitor, single point]
Cc1ccn2c(CNCc3cnn(C)c3)c(C(=O)N3CCCCCC3)nc2c1	inactive: 12.8%	–
O=C1NC(c2ccccc2)=C(c2ccc3ccccc3n2)C(c2ccc(F)cc2)N1 (configuration not stated)	–	inconclusive [inhibitor, single point]
C/C(=C\c1ccco1)CN1CCOc2ccc(C(C)(O)COc3ccccc3)cc2C1 (configuration not stated)	–	inconclusive [inhibitor, single point]
COc1ccc(/C=N/NC(=O)c2ccoc2C)cc1OC	inactive: -3.84%	–
CN1CCN(C(=O)c2ccc(NS(=O)(=O)c3cccc([N+](=O)[O-])c3)cc2)CC1	inactive: -20.8%	–
O=[N+]([O-])c1ccc(S(=O)(=O)Nc2cccc(-c3ccc(N4CCOCC4)nn3)c2)cc1	–	inconclusive [inhibitor, partial curve, poor fit]
O=C(Nc1ccc2ncccc2c1)c1ccccc1	–	inconclusive [inhibitor, single point]
CNC(=O)CSc1nc(-c2ccccc2)c(-c2ccccc2)o1	–	inconclusive [inhibitor, single point]
COCc1ccc(CN2Cc3cc(Cl)ccc3OC(C)C2)o1 (configuration not stated)	inactive: -17.3%	–
O=C(Nc1cc(-c2ccccc2)nn1-c1ccccc1)c1ccccc1F	–	inconclusive [inhibitor, single point]
COc1ccc(-c2nn(C)c3sc(C(=O)N4CCOCC4)cc23)cc1OC	–	inconclusive [inhibitor, partial curve, poor fit]
COc1ccc(OCC(=O)Nc2cccc(NC(=O)COc3ccc(OC)cc3)n2)cc1	–	inconclusive [inhibitor, single point]
